Assay results from article PMC9481464.
No constants are given. Whether binding was seen depends on the method and setting. Some entries that bind do so weakly or less than the wild type. Sequences can lack the tags named with a protein.

By UniProt entry, the sequences of proteins in these tests, tags left out. Where a name states a change or a piece, a line headed by the entry shows the natural chain unless it says otherwise.
UniProt O75140: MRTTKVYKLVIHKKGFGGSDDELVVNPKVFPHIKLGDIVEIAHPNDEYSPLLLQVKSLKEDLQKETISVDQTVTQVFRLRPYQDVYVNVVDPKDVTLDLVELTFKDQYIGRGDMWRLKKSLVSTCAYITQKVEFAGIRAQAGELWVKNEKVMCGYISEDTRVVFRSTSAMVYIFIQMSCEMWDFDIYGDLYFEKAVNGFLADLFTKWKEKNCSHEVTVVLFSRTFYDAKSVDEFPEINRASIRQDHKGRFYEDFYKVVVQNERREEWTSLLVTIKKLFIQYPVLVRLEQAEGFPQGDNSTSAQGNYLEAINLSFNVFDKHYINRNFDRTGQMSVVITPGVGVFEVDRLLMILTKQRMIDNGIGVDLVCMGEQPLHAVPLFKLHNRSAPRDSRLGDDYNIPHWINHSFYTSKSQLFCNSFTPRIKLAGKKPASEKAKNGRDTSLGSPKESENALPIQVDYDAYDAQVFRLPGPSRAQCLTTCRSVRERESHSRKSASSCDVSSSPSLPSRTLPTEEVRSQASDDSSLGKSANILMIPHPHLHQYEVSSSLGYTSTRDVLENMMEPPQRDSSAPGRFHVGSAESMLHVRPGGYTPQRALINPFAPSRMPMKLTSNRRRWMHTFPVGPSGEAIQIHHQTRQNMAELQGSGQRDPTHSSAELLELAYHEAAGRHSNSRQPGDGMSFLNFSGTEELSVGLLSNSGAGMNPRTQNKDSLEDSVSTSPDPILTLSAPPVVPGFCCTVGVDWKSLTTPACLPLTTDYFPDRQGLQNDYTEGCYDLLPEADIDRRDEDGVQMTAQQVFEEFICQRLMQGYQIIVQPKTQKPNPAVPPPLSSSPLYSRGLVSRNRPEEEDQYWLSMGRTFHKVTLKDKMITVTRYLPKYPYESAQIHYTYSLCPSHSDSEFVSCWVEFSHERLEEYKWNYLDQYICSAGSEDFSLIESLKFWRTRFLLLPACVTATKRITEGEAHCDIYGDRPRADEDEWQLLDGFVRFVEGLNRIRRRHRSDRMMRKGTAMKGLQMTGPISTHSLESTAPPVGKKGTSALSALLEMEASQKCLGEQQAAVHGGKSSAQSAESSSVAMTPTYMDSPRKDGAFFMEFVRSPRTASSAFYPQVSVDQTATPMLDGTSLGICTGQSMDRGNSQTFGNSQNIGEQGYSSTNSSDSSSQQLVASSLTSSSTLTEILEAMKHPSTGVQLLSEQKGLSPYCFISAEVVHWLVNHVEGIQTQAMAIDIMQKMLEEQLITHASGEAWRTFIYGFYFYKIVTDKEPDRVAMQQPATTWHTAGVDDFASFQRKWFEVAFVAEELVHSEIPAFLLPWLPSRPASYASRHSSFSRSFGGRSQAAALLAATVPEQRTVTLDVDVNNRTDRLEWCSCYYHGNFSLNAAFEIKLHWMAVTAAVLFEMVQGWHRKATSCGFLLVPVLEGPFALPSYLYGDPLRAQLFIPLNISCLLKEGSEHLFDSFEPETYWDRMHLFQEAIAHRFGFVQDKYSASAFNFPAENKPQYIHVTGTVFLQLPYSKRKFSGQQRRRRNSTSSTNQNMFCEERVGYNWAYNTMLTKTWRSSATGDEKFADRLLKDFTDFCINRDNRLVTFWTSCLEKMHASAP

Legend:
[1] = biological target: FLAG–DEPDC5 (wild type) (UniProt O75140); experiment: co-purification; FLAG–DEPDC5 (wild type or Y775A), HA-Nprl2 and HA-Nprl3 co-transfected 1:2:2 in HEK293T; anti-FLAG beads, FLAG peptide elution in CHAPS buffer; Coomassie staining
[2] = biological target: FLAG–DEPDC5 Y775A (UniProt O75140); experiment: as above

binding [1]: binds
binding [2]: binds
B1: HA-tagged Nprl2/3 (complex, UniProt Q8WTW4 1-380; Q12980 1-569)
chain 1: MGSGCRIECIFFSEFHPTLGPKITYQVPEDFISRELFDTVQVYIITKPELQNKLITVTAMEKKLIGCPVCIEHKKYSRNALLFNLGFVCDAQAKTCALEPIVKKLAGYLTTLELESSFVSMEESKQKLVPIMTILLEELNASGRCTLPIDESNTIHLKVIEQRPDPPVAQEYDVPVFTKDKEDFFNSQWDLTTQQILPYIDGFRHIQKISAEADVELNLVRIAIQNLLYYGVVTLVSILQYSNVYCPTPKVQDLVDDKSLQEACLSYVTKQGHKRASLRDVFQLYCSLSPGTTVRDLIGRHPQQLQHVDERKLIQFGLMKNLIRRLQKYPVRVTREEQSHPARLYTGCHSYDEICCKTGMSYHELDERLENDPNIIICWK
chain 2: MRDNTSPISVILVSSGSRGNKLLFRYPFQRSQEHPASQTSKPRSRYAASNTGDHADEQDGDSRFSDVILATILATKSEMCGQKFELKIDNVRFVGHPTLLQHALGQISKTDPSPKREAPTMILFNVVFALRANADPSVINCLHNLSRRIATVLQHEERRCQYLTREAKLILALQDEVSAMADGNEGPQSPFHHILPKCKLARDLKEAYDSLCTSGVVRLHINSWLEVSFCLPHKIHYAASSLIPPEAIERSLKAIRPYHALLLLSDEKSLLGELPIDCSPALVRVIKTTSAVKNLQQLAQDADLALLQVFQLAAHLVYWGKAIIIYPLCENNVYMLSPNASVCLYSPLAEQFSHQFPSHDLPSVLAKFSLPVSLSEFRNPLAPAVQETQLIQMVVWMLQRRLLIQLHTYVCLMASPSEEEPRPREDDVPFTARVGGRSLSTPNALSFGSPTSSDDMTLTSPSMDNSSAELLPSGDSPLNQRMTENLLASLSEHERAAILSVPAAQNPEDLRMFARLLHYFRGRHHLEEIMYNENTRRSQLLMLFDKFRSVLVVTTHEDPVIAVFQALLP
